Where “and” joins values, the source holds several entries; their conditions need not be identical. Identical values can stand only once. About 1,200 (2.5%) of roughly 48,000 compounds were called active. Another 2% or so got no clear call; they are omitted.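 How the source made its calls: active means activation of at least 60% and not above a set upper limit (about 1 call in 100 departs from these limits); inconclusive means activation of 40% to 60%, or above that upper limit; inactive means activation under 40%.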 The list shows a part of the results.
What follows are compounds tested against Probable G-protein coupled receptor 32 (Homo sapiens) (UniProt O75388) (assay: qHTS for Agonists of Human Resolvin D1 Receptor DRV1). Settings: CHO-K1 GPR32 beta-arrestin PathHunter luminescence, 90 min; at 76.9 µM; hits give high values; zero percent set by DMSO-only wells.
Sequence of UniProt O75388 (O75388 whole entry, looked up): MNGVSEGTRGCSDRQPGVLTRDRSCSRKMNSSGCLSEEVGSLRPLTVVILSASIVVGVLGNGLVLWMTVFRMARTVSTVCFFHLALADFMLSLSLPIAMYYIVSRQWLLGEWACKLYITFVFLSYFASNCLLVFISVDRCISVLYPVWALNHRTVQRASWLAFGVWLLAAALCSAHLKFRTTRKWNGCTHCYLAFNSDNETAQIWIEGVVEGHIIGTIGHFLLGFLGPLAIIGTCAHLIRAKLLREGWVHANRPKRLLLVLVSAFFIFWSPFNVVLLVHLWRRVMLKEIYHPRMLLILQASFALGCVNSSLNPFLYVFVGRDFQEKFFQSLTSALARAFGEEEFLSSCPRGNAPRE
Summary of the method: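 CHO-K1 cells stably expressing ProLink-tagged GPR32 and Enzyme Activator-tagged beta-arrestin were seeded at 2,500 cells/well overnight, exposed to compounds for 90 min at 37 °C, then read by beta-Gal complementation chemiluminescence after 1 h detection reagent.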
Further: 0% is about no effect.

activation, inactive:
COc1cccc(OC)c1C(=O)Nc1ccc(S(=O)(=O)Nc2nccc(C)n2)cc1 9.16%, Cc1ccc(OCC(O)Cn2c(=N)n(CCN3CCCCC3)c3ccccc32)cc1 (centres undefined) -1%, Cc1ccc(-n2ncc(C(=O)NCCCN3CCCCC3)c2C2CCN(C(=O)OC(C)(C)C)CC2)cc1 -12.5%, Cc1ccc(NC(=O)c2c(C)nc3sc(C(=O)Nc4ccc(F)cc4)c(N)c3c2-c2ccccc2Cl)c(C)c1 -5.7%, CCOC(=O)c1c(C)n(-c2ccccc2)c2ccc(OC(=O)c3ccccc3NC(=O)C(C)(C)C)cc12 -15.6%, CC1CCC(C(=O)NC(C(=O)OCC(=O)c2ccccc2)C(C)C)CC1 (centres undefined) 9.12%, CCOc1cc(C(=O)OCc2cc(=O)n3nc(CC)sc3n2)cc(OCC)c1OCC -15.7%, CCC(=O)N1CCc2cc(Br)cc(S(=O)(=O)N3CCCC(C(=O)Nc4ccc(C(C)C)cc4)C3)c21 (centres undefined) -6.79%, CCc1cnc2c(c1SCC(=O)c1ccccc1)c(=O)n(C)c(=O)n2C -5.93%, CCCCC(=O)N(c1ccc2oc(C)c(C(C)=O)c2c1)S(=O)(=O)c1ccc(F)cc1C -7.49%, COC(=O)c1ccccc1NC(=O)c1c(C)oc2ncn(C)c(=O)c12 -1.84%, COc1ccc(OCc2nc3ccccc3n2Cc2ccccc2Cl)cc1 -5.17%, COc1ccc(-c2ccc(NS(=O)(=O)c3ccc(OC)c(OC)c3)cc2)nn1 9.41%, CCOc1sc2nc(C)n(CC(=O)Nc3cccc(C)c3)c(=O)c2c1C 11.3%, Cc1scc2c1N(C(=O)CN1CCN(C)CC1)c1ccccc1NC2=O -14.1% and -2.24%, Cc1c(C(=O)NCc2cccc(Cl)c2)sc2nc3n(c(=O)c12)CCC3 -14.4%, Cc1cn2c(=O)cc(COc3ccccc3NC(=O)c3ccco3)nc2s1 -8.96%, Cc1cc2c(cc1Cl)N(C(=O)Nc1ccc(Oc3cccnc3C)nc1)CC2 9.3%, Cc1ccc(CNS(=O)(=O)c2cc3[nH]c(=O)c(=O)[nH]c3cc2C)cc1 19.5%, Cc1ccc(S(=O)(=O)NC2(C(F)(F)F)C(=O)Nc3c2c(=O)[nH]c(=O)n3-c2ccccc2)cc1 (centres undefined) -1.06%, O=S(=O)(c1ccc(Br)cc1)c1nnn2c1nc(N1CCOCC1)c1sccc12 -6.95%, CCN1CCN(CCCNC(=O)c2cnn(-c3ccc(C)cc3C)c2C2CCN(C(=O)OC(C)(C)C)CC2)CC1 -7.82%, NC(=O)c1nc(-c2ccc(F)c(F)c2)nc2c1[nH]c(=O)n2-c1cccc(Cl)c1 -0.306%, CSc1nc2sc3c(c2c(=O)n1Cc1ccccc1)CCC(C(C)(C)C)C3 (centres undefined) 9.83%, O=C(COC(=O)c1cc(-c2ccccc2)nc2ccccc12)c1ccc(Br)cc1 3.34%, Cc1ccc(C(=O)Nc2ccc3nc(SCC(=O)N4CCCc5ccccc54)sc3c2)cc1 -20.5%, Cc1ccc(Cl)cc1NC(=O)c1cnc(N2CCCCC2)c2ccccc12 -11.5%, CCCC(=O)NCC1(N(C)C)CCCCC1 -4.75%, CCOC(=O)C1CCN(S(=O)(=O)c2cc(Br)cc3c2N(C(=O)CC)CC3)CC1 -10.1%, N#Cc1ccc(C(=O)Nc2cc3nn(-c4ccccc4)nc3cc2Cl)c(F)c1 -15.2%, COc1ccc(-c2nc3scc(CCNS(=O)(=O)c4ccc(C)cc4)n3n2)cc1 10.2%, CCOc1cc2sc(N3CCC(C(=O)Nc4ccc(C)cc4C)CC3)nc2cc1Br -5.1%, CCN1CCN(c2ncc3c(n2)CCN(Cc2cc(F)cc(F)c2)C3)CC1 -28.9%, COc1ccccc1NC(=O)C(=O)NCC(c1ccc2c(c1)OCO2)N1CCN(C)CC1 (centres undefined) -10.6%, O=C(N[C@@H](Cc1ccccc1)C(=O)CCl)OCc1ccccc1 -3.95%, COc1ccc(NC(=O)C(=O)NCCc2csc(-c3ccc(Cl)cc3)n2)cc1OC -0.161%, Cc1ccc(S(=O)(=O)NC(=O)NC2CCCC2)cc1 -25%, Cc1cccc(C(=O)Nc2c(-c3ccccc3)nc3cc(C)ccn23)c1 -16.1%, COc1ccc(S(=O)(=O)N(CC(=O)Nc2ccccc2Br)Cc2ccccc2)cc1 -4.91%, Cn1c(=NC(=O)c2ccc(S(=O)(=O)N3CCCc4ccccc43)cc2)sc2cc(F)ccc21 -2.02%, CC(C)OCCCn1c(=O)c2ccccc2n2c(-c3ccc(F)cc3)nnc12 -5.63%, CCCCCCCC/C=C/C(=O)O -13.4%, CCOC(=O)COc1ccc([N+](=O)[O-])cc1-c1ccnc2cc(-c3ccc(Cl)cc3)nn12 -1.69%, COC(=O)c1ccc(NC(=O)CSc2nc(=O)[nH]c3c2CCCC3)cc1 -1.64%, CCc1ccc(CN(Cc2ccco2)c2cnc(S(C)(=O)=O)nc2C(=O)Nc2cccc(C)c2)cc1 -18%, CN(C)c1ccc(C(CNC(=O)c2ccccc2)N2CCc3ccccc32)cc1 (centres undefined) -28.6%, COc1ccccc1CNc1nc(-c2ccco2)nn1S(=O)(=O)c1ccc2ccccc2c1 -18.8%, Cc1cccc(-c2noc(-c3ccccc3OCC(=O)Nc3ccc([N+](=O)[O-])cc3)n2)c1 -2.95%, CCC1=Nc2cc(C(=O)NCCCOC)ccc2Sc2ccc(Br)cc21 -9.48%, Cc1ccccc1C(=O)Nc1sc2c(c1C(=O)NCc1ccco1)CCC(C(C)(C)C)C2 (centres undefined) -18.6%, CNC(=O)C1CCC(Cn2c(=O)c3sccc3n(CC(=O)NCc3ccccc3)c2=O)CC1 (centres undefined) -1.99%, COCCCNC(=O)c1oc2c(c1C)-c1nn(Cc3ccccc3Cl)cc1CC2 -21.9%, O=C(c1cccs1)N(Cc1cccnc1)c1nc2c(F)cc(F)cc2s1 -13.3%, CCn1cc2nc(SCc3ccc(F)cc3)n(CCc3ccccc3)c(=O)c2n1 12.5%, CCN(CCCNC(=O)c1ccc(Sc2ccc(Cl)cc2)c(NC(C)=O)c1)c1ccccc1 -32.9%, COc1ccc(-c2nc(CSc3nnc(C)n4c3cc3oc(C)cc34)c(C)o2)cc1OC -8.93%, CCN(CC)S(=O)(=O)c1nnc(NC(=O)c2ccc(Br)cc2)s1 36%, O=S(=O)(c1ccccc1)c1nc(-c2cccc(Cl)c2)oc1N1CCOCC1 -2.3%, COc1ccc(CCNC(=O)C2CCCN(S(=O)(=O)c3ccc4c(c3)oc(=O)n4C)C2)cc1OC (centres undefined) -2.98%, CCOc1ccc(-c2cc3nc(C4CCN(C(=O)OC(C)(C)C)CC4)c(C(=O)Nc4c(C)cccc4C)cn3n2)cc1 -5.7%, Cc1ccc2c(Br)cc(Br)c(O)c2n1 -76.7%, Cc1ccc(CNC(=O)CCc2cn(Cc3ccc(C)cc3)c3ccccc23)cc1 -18.5%, CCOC(=O)c1c(C)sc(-c2c(-c3cccc(Cl)c3)[nH]c3c2c(=O)n(C)c(=O)n3C)c1O -1.43%, COc1ccc(NC(=O)C2=C(C)Nc3ncnn3C2c2ccc[nH]2)cc1 (centres undefined) 18.4%, CCC(=O)Nc1ccccc1-c1nc2ccccc2n(C(CC)C(=O)Nc2cccc(Cl)c2)c1=O (centres undefined) -30.4%, Cc1cc(C)c(Cn2c(=O)n(CCCCC(=O)NCc3ccccc3Cl)c(=O)c3ccccc32)c(C)c1 -1.21%, Fc1ccc2c(c1)-c1c(cnc3cc(-c4ccc(Cl)cc4)nn13)CO2 -4.84%, CC(=O)N1CCc2cc(CNC(=O)Nc3ccc(Br)c(C)c3)ccc21 -13.1%, COc1cccc(NC(=O)c2csnn2)c1 10.9%, CC(=O)Nc1ccc(NC(=O)C2CCN(c3cnccn3)CC2)cc1 16.4%, Cc1c(C(=O)N(C)C)sc2c1c(=O)n(-c1ccc(F)cc1)c(=O)n2Cc1ccccc1C#N -4.94%, CCc1ccccc1N(C)S(=O)(=O)c1ccc2c(c1)C(C)(C)C(=O)N2C 30.6%, COc1ccc(CCN2C(=O)c3[nH]nc(-c4ccccc4O)c3C2c2ccccc2)cc1 (centres undefined) 11.2%, C=Cc1ccc(Cn2ccn(-c3ccc(F)c(F)c3)c(=O)c2=O)cc1 -13.1%, CC(C)(C)NC(=O)N1CCC(C(=O)O)CC1 0.482%, Cc1ccc(CNC(=O)Cc2ccc(NC(=O)N3CCSc4ncccc43)cc2)cc1 7.55%, CCOc1ccccc1NC(=O)CN1C(=O)COc2ccc(S(=O)(=O)NC3CCCC3)cc21 9.78%, CCc1ccccc1NC(=O)c1ccc2c(c1)nnn2C1CCCC1 -17.4%, CCCNC(=O)c1ccc(Cn2c(=O)c3cccn3c3cccnc32)cc1 -12.9%, COc1ccccc1CNC(=O)CCC1N=C2c3ccccc3N=C(SCc3ccc(Cl)cc3)N2C1=O (centres undefined) -30.7%, COCCCNC(=O)CCCn1c(=O)c2cccn2c2ccccc21 -3.23%, CCOC(=O)c1c(C)c(-c2ccccc2)n(CC(=O)Nc2cc(C)cc(C)c2)c1C -23%, Cc1ccc(N2CCN(S(=O)(=O)c3ccc(Cl)c4ccccc34)CC2)c(C)c1 -13.2%

activation, active:
CCN1CCc2nc3sc(C(=O)Nc4cccc(Cl)c4C)c(N)c3cc2C1 121%
